Laboratory results from paper PMC4336329 (PLoS ONE, 2015).
The campaign covered roughly 310,000 compounds. About 2,200 (0.71%) showed an effect of 50% or more. The effect is printed as a negative number. The list shows a part of the results.

These compounds were tested against human ether-à-go-go-related gene (hERG) potassium channel (human, UniProt Q12809) (assay: primary screen, population patch clamp on CHO cells stably expressing hERG).
Chain of human ether-à-go-go-related gene (hERG) potassium channel (Q12809 whole entry, looked up): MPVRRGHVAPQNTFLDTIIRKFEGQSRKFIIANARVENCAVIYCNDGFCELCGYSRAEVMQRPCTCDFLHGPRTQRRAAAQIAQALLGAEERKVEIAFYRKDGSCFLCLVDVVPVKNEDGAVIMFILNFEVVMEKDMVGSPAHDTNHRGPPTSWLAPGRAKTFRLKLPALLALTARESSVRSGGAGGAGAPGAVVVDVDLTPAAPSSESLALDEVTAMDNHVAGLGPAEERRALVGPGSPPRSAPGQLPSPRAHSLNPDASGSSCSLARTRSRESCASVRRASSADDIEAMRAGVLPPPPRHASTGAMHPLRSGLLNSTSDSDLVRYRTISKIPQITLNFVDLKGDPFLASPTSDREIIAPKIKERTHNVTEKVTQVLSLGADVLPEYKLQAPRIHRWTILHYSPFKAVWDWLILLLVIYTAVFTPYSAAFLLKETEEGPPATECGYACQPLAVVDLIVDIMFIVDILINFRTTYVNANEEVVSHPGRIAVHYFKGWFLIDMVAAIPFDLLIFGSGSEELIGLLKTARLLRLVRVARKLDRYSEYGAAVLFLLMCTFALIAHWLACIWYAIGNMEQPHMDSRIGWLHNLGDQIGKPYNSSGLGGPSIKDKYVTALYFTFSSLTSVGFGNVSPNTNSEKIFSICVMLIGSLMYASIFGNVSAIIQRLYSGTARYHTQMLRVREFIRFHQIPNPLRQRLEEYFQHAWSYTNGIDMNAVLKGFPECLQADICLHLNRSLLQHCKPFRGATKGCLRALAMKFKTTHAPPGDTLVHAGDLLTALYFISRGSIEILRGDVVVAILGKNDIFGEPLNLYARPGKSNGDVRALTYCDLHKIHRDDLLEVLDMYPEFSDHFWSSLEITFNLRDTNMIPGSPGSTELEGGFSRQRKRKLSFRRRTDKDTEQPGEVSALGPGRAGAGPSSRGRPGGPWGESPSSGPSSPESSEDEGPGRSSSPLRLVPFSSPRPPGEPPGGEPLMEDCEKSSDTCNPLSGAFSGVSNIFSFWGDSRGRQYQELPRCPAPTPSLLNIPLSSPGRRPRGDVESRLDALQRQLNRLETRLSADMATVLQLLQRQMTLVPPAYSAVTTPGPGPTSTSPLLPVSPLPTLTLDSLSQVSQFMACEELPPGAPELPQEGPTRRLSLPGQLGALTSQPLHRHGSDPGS

Point of comparison: `O=C(CCN1CCN(Cc2ccccc2)CC1)Nc1ccc(OCc2ccccc2)cc1`, “hERG current change (%, negative = inhibition) at 1uM” value -6.62%. Against it:
- O=C(OCC(=O)C12CC3CC(CC(C3)C1)C2)c1cccnc1Cl — higher, 16.6%
- COc1ccc(C(=O)Nc2ccc3ccccc3c2)c(OC)c1 — higher, 16.4%
- Cc1nc(N)c(Cc2ccc(Cl)cc2Cl)c(N)n1 — higher, 13.3%
- CC12CCC(=O)N1C(C(=O)Nc1cc(S(=O)(=O)N3CCCCCC3)ccc1OCC(F)(F)F)CS2 (stereo not drawn) — higher, -6.57%
- CCN(CC)C(=O)CSc1nc(-c2ccc(C)cc2)nc2c1COC(C)(C)C2 — higher, 4.01%
- COc1ccc(Cl)cc1NC(=O)CSc1nnc(Cn2c(=O)sc3ccccc32)n1C — lower, -18.7%
- CCc1ccccc1NC(=O)c1ccc(-n2c(C)ccc2C)cc1 — higher, -2.49%
- O=C(OCC(=O)N1CCc2ccccc21)C1=COCCO1 — higher, 8.87%
- Cc1ccc(Cl)cc1N1CCN(C(=O)CCCn2c(=O)c3cccn3c3cccnc32)CC1 — higher, 2.42%
- O=C(COc1ccccc1-c1ccccc1)NNC(=O)NC1CCCCC1 — higher, 2.67%
- COc1ccc(C(=O)CN2CCOCC2)cc1F.Cl — higher, 14.8%
- O=C(CCNC(=O)C1CCN(S(=O)(=O)c2ccc(F)cc2)CC1)Nc1ccccc1 — higher, 2.32%
- COc1ccc(C)cc1NC(=O)NNC(=O)C(C)Oc1ccc(F)cc1Cl (stereo not drawn) — higher, -3.61%
- Cc1ccc2nc(CSc3nnc(Nc4ccccc4C)s3)cc(=O)n2c1 — higher, 9.23%
- COc1ccc(C(=O)OCC(=O)Nc2c(C)n(C)n(-c3ccccc3)c2=O)cc1OC — higher, 15.4%
- CCCCn1c(SCC(=O)Nc2cc(NC(=O)c3ccco3)ccc2C)nc2ccccc2c1=O — lower, -8.07%
- N#Cc1ccccc1OCC(=O)N1CCN(S(=O)(=O)c2ccc(Cl)cc2)CC1 — higher, -1.4%
- Cc1nc2ccccc2n1C(=O)N(C)C — higher, 22.7%
- Cn1c(-c2ccc(Cl)cc2)cnc1N — higher, 17%
- Cc1onc(-c2ccccc2Cl)c1C(=O)N1CCN(c2ncccn2)CC1 — higher, 9.94%
- COc1cc(Br)cc2cc(C(=O)N3CCOCC3)c(=O)oc12 — higher, 11.2%
- COc1ccc(-c2cc3ncccc3cn2)cc1 — higher, 12.7%
- COc1ccc(C(NC(C)=O)c2ccc3cccnc3c2O)c(OC)c1 (stereo not drawn) — higher, 6.27%
- CCc1c(C)nc2c(-c3ccccc3)c(-c3ccccc3)[nH]n2c1=O — higher, 14.3%
- O=C(NC1CCc2ccccc21)c1cc(COc2c(F)cccc2F)on1 (stereo not drawn) — higher, 11.3%
- Br.Nc1nc2c(s1)CCc1ccccc1-2 — higher, 13.3%
- O=C(NCCCNC(=O)c1ccco1)c1ccc(F)cc1 — higher, 9.67%
- CC(C)(C)c1ccc(-c2noc(CNC(=O)c3ccco3)n2)cc1 — higher, 9.73%
- O=C(Nc1ncn[nH]1)c1ccc(Cl)c(S(=O)(=O)Nc2ccc(Cl)cc2)c1 — higher, 9.48%
- COc1ccc(/C=C/C(=O)NC(=S)Nc2ccccc2)cc1OC — higher, 11.7%
- CC(=O)c1cc(-c2ccccc2)n(CCC(=O)NC2CCCCC2)c1C — higher, 7.83%
- Cc1ccc(C(=O)OCC(=O)Nc2ccc(S(N)(=O)=O)cc2)c(O)c1 — higher, 7.79%
- Oc1ccc(-c2[nH]ncc2-c2nc3ccccc3s2)c(O)c1 — higher, 11.2%
- CCOC(=O)CCC(=O)N(CCN(C(=O)CCC(=O)OCC)c1ccccc1)c1ccccc1 — higher, 8.84%
- CCC1=[N+](CC(=O)c2ccc(C)cc2)CCn2c(C)ccc21.[Br-] — higher, 6.4%
- NS(=O)(=O)c1cccc(NC(=O)COC(=O)C2CCCCC2)c1 — higher, 12.1%
- O=C(Cc1c(F)cccc1Cl)Nc1ccccc1-c1ccccc1 — higher, 4.56%
- COc1ccc(Cl)cc1-c1n[nH]c(=S)n1C1CCCCC1 — higher, 12%
- CCCC(C)C(=O)Nc1ccc2c(c1)OCCO2 (stereo not drawn) — higher, 6.88%
- O=C(O)c1[nH]c(=O)[nH]c(=O)c1F — higher, 15.1%
- CC(=O)c1cccc(Oc2ncccn2)c1 — higher, 17.2%
- Cc1ccc(-n2ncc3c(NCC4CCCO4)ncnc32)c(C)c1 (stereo not drawn) — higher, 10%
- COc1cccc(-c2nc3cc(C)ccc3o2)c1 — higher, 14.8%
- O=C(/C=C/c1cccs1)NC(=S)Nc1ccc(C(=O)O)cc1 — higher, 9.2%
- CCc1ccc(C(c2ccc(CC)cc2)C(Cl)Cl)cc1 — higher, 15.9%
- Cc1ccccc1-c1nnc(SCC(=O)NCC2CCCO2)o1 (stereo not drawn) — higher, 10.1%
- CCCC(=O)N1CCc2cc(OC)c(OC)cc2C1c1cc2cc3c(cc2[nH]c1=O)OCO3 (stereo not drawn) — higher, 8.02%
- O=C(CC1C(=O)NCCN1Cc1c(F)cccc1Cl)NCc1ccccc1 (stereo not drawn) — higher, 13%
- O=C(O)c1ccccc1C(=O)OCCc1cc2ccccc2c(=O)o1 — higher, 11.8%
- O=C(NCc1ccccc1)N1CCN(c2ccccc2F)CC1 — higher, 4.57%
- COc1ccc(OC)c(S(=O)(=O)N2CCC(C(=O)N3CCN(Cc4ccccc4)CC3)CC2)c1 — higher, 4.62%
- Cc1ccc(-c2noc(CSc3nnnn3-c3ccccc3)n2)cc1 — higher, 21.3%
- CC1CC[C@@]2(OC1)O[C@H]1CC3[C@@H]4C[C@@H](O)[C@@]5(O)C[C@@H](O)[C@H](O)C[C@]5(C)[C@H]4CC[C@]3(C)[C@H]1[C@@H]2C (stereo partly drawn) — higher, 10.3%
- COc1ccc(-n2c(C)cc(C(=O)CN3CCC(C)CC3)c2C)cc1 — higher, -0.0538%
- OCCN1CCOCCN(CCO)CCN(CCO)CC1 — higher, 7.33%
- CCOc1ccccc1NC(=O)CN(C)S(=O)(=O)c1cnc[nH]1 — higher, 26.5%
- Clc1nc(-c2ccccc2)cc(-c2ccc(Br)cc2)n1 — higher, 9.63%
- CCN(CCCNC(=O)COc1cc(=O)n(C)c2ccccc12)c1cccc(C)c1 — higher, -4.75%
- CN(CC(=O)Nc1ccccc1Br)C(=O)Cn1[nH]c(=O)c2ccccc2c1=O — higher, 11.3%
- COC(=O)Cn1nc(-c2ccccc2)c2ccccc21 — higher, 6.61%
- CN1CCN(c2ccc(C(F)(F)F)cc2N)CC1 — higher, 7.91%
- CCOC(=O)c1cccc(NC(=O)CN2C(=O)C3CC=CCC3C2=O)c1 (stereo not drawn) — higher, -1.8%
- COc1ccc2[nH]cc(CCCN3C(=O)c4ccccc4C3=O)c2c1 — higher, 5.85%
- COc1ccccc1C(=O)NNC(=O)c1ccc2ccccc2c1 — higher, 5.63%
- CCn1c(SCc2nc3ccccc3c(=O)[nH]2)nnc1-c1ccncc1 — higher, 6.92%
- CC(=O)NC(CC(=O)N1CCN(C(C)=O)CC1)c1ccccc1 (stereo not drawn) — higher, 21.2%
- CCCCn1c(=O)c(C(=O)Nc2ncccc2C)c(O)c2ccccc21 — higher, 13.5%
- Cn1c(CN2CCCCC2)nc2cc(NC(=O)c3cccs3)ccc21 — higher, 6.23%
- COc1ccc(NS(=O)(=O)c2cc(NC(=O)CNC(=O)c3ccc(C)s3)ccc2Cl)cc1 — higher, 7.92%
- Cc1nnc(SCC(=O)c2c(N)n(C)c(=O)n(C)c2=O)n1Cc1ccccc1 — higher, 9.36%
- CC(NC(=O)c1ccco1)C(=O)NC(C)c1cc(F)c(Cl)cc1Cl (stereo not drawn) — higher, 19.1%
- O=C(Cc1ncc(C(F)(F)F)cc1Cl)NC1CC1 — higher, 6.45%
- Cn1c(-c2csc(-c3ccccc3)n2)n[nH]c1=S — higher, 8.8%
- CCC(=O)Nc1nnc(SCc2ccccc2F)s1 — higher, 10.2%
- COC(=O)C1CCN(C(=O)/C(C)=C\c2ccccc2)CC1 — higher, 9.9%
- O=C(NCCc1c[nH]c2ccccc12)c1ccc(-n2cnnn2)cc1 — higher, -2.19%
- Cc1ccc(CN(C(=O)COc2ccc([N+](=O)[O-])cc2)C2CCS(=O)(=O)C2)o1 (stereo not drawn) — higher, -3.95%
- O=C(C1CCCCC1)N1CCc2ccccc21 — higher, 16.2%
- CCOC(=O)c1cn(-c2c(Cl)cccc2Cl)c2cc(Cl)c([N+](=O)[O-])cc2c1=O — higher, 8.33%
- COc1cc(C2/C(=C(\O)c3ccc4c(c3)CC(C)O4)C(=O)C(=O)N2c2nnc(C)s2)cc(OC)c1OC (stereo not drawn) — higher, 12.5%
- CCOC(=O)N1CCN(C(=O)CCCn2nnnc2CN2CCC(C)CC2)CC1 — higher, 10.4%
- O=C(Nc1nnc(C2CC2)s1)c1cc(-c2ccccc2)nn1-c1ccccc1 — higher, 8%
- CCc1c(C)sc(NC(=O)c2cc(CC(C)C)on2)c1C#N — higher, 6.85%
- COC(=O)C1CCN(C(=O)COC(=O)CC(NC(C)=O)c2ccccc2)CC1 (stereo not drawn) — higher, 7.51%
- COc1ccc(NC(=S)N2CCCN(Cc3cccc(Cl)c3)C2)cc1 — higher, 1.26%
- CN(CC(=O)Nc1nc2ccc(F)cc2s1)S(=O)(=O)c1ccc(Cl)cc1 — higher, 17.5%
- COc1cc(C(=S)N2CCOCC2)ccc1OS(=O)(=O)c1ccccc1[N+](=O)[O-] — higher, 7.6%
- CCSc1ncc(Cl)c(C(=O)Nc2cc(C)ccc2C)n1 — higher, 13.2%
- O=C(NCCCN1CCOCC1)C(=O)N/N=C/c1cccc2ccccc12 — higher, 1.17%
